We go through 19 molecules from the supplement of paper PMC10369915.

The other results are listed elsewhere or left out. No stated cut-off is given here; in the data, active = 3.2 or more and inactive = the rest. The signal is at background level for most entries.
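Further: displayed peptides selected on beads carrying the immobilized SH2 domain, with library peptides lacking any tyrosine serving as negative controls.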

For the first assay, the target named is SHP2 C-SH2 domain E139D. As to the kind of experiment: enrichment score (SH2-bound / input frequency) (ratio); bacterial display of known human phosphotyrosine sites (pTyr-Var adds point mutants) read by sequencing; higher = stronger binding; tyrosines were phosphorylated by kinases first. The following applies: peptide library: pTyr-Var.
On to DTQNSYGCATS [TSC1_Y304], for which the enrichment score is inactive: 0.509.
The same measure, in the same setting: the same measure for GSQERDFELVE [TSC2_Y407_Y407D]: inactive: 0.466.
Regarding ANNEFYFQVCA [TTN_Y18998_R19000Q_YF], the enrichment score was inactive: 0.559.
As to CHSDDYVHISI [TSC1_Y406_L411I], the enrichment score was inactive: 0.839.
Regarding SQSAKYDMAED [TTC21B_Y1213_I1208S], the enrichment score was inactive: 0.556.
Consider CHSDDYVHISL [TSC1_Y406], for which the enrichment score is inactive: 0.79.
Same read-out and setting: the same measure for ISSLCYELLEE [TRPC6_Y896_R895C]: inactive: 1.17; for LANNEYFFQVC [TTN_Y18997_R19000Q_YF]: inactive: 0.722.
On the same count and under the same terms, the same measure for IETGRYEILTE [TTN_Y13435]: inactive: 0.686; for FGLPRYRWLTH [TSPAN12_Y143_YF]: inactive: 0.335.
On the same count and under the same terms, the same measure for TFLRTYTDAMQ [TSPAN7_Y124]: inactive: 0.727.
LGKGSYAKVRS [TSSK2_Y23_K27R]: the enrichment score is inactive: 1.14.
On the same count and under the same terms, the figure for LANNEYYFQVC [TTN_Y18997_R19000Q] is inactive: 0.907; for RGEEPYTKKAL [TTC21B_Y160_K157E] it is inactive: 0.623.
On the same count and under the same terms, the figure for ANNEYYFQVCA [TTN_Y18998_R19000Q] is inactive: 0.894; for AQMAMYFWEMS [TRPM4_Y577_G582S] it is inactive: 2.86.
The same measure, in the same setting: the same measure for LANNEYFFRVC [TTN_Y18997_YF]: inactive: 0.987; for IQSAKYDMAED [TTC21B_Y1213]: inactive: 0.621.
For AEVIWYKGDEE [TTN_Y13423], the enrichment score was inactive: 0.805.

In the next assay the target is SHP2 C-SH2 domain wild-type. The description is as above. Particulars: peptide library: pTyr-Var.
For the molecule DTQNSYGCATS [TSC1_Y304], the enrichment score is inactive: 0.374.
Same read-out and setting: the same measure for GSQERDFELVE [TSC2_Y407_Y407D]: inactive: 0.348; for ANNEFYFQVCA [TTN_Y18998_R19000Q_YF]: inactive: 0.813.
With CHSDDYVHISI [TSC1_Y406_L411I], the enrichment score is inactive: 0.99.
As to SQSAKYDMAED [TTC21B_Y1213_I1208S], the enrichment score is inactive: 0.423.
The same measure, in the same setting: the same measure for CHSDDYVHISL [TSC1_Y406]: inactive: 0.876; for ISSLCYELLEE [TRPC6_Y896_R895C]: inactive: 1.04.
Still for that read-out and setting: the same measure for LANNEYFFQVC [TTN_Y18997_R19000Q_YF]: inactive: 1.09; for IETGRYEILTE [TTN_Y13435]: inactive: 0.958; for FGLPRYRWLTH [TSPAN12_Y143_YF]: inactive: 0.381.
Still for that read-out and setting: the same measure for TFLRTYTDAMQ [TSPAN7_Y124]: inactive: 0.938.
Turning to LGKGSYAKVRS [TSSK2_Y23_K27R], the enrichment score was inactive: 1.23.
Still for that read-out and setting: the figure for LANNEYYFQVC [TTN_Y18997_R19000Q] is inactive: 1.39; for RGEEPYTKKAL [TTC21B_Y160_K157E] it is inactive: 0.558.
Same read-out and setting: the same measure for ANNEYYFQVCA [TTN_Y18998_R19000Q]: inactive: 1.14; for AQMAMYFWEMS [TRPM4_Y577_G582S]: inactive: 2.93.
Still for that read-out and setting: the same measure for LANNEYFFRVC [TTN_Y18997_YF]: inactive: 1.15.
Take IQSAKYDMAED [TTC21B_Y1213]: the enrichment score was inactive: 0.529.
On to AEVIWYKGDEE [TTN_Y13423], for which the enrichment score is inactive: 0.58.

The target in another assay is SHP2 N-SH2 domain L43F. The description is as above. The following applies: peptide library: pTyr-Var.
DTQNSYGCATS [TSC1_Y304]: the enrichment score was inactive: 0.535.
Still for that read-out and setting: the figure for GSQERDFELVE [TSC2_Y407_Y407D] is inactive: 0.465; for ANNEFYFQVCA [TTN_Y18998_R19000Q_YF] it is inactive: 0.569; for CHSDDYVHISI [TSC1_Y406_L411I] it is inactive: 0.827.
Turning to SQSAKYDMAED [TTC21B_Y1213_I1208S], the enrichment score is inactive: 0.456.
The same measure, in the same setting: the same measure for CHSDDYVHISL [TSC1_Y406]: inactive: 0.841; for ISSLCYELLEE [TRPC6_Y896_R895C]: inactive: 1.08; for LANNEYFFQVC [TTN_Y18997_R19000Q_YF]: inactive: 0.911.
The same measure, in the same setting: the figure for IETGRYEILTE [TTN_Y13435] is inactive: 0.636; for FGLPRYRWLTH [TSPAN12_Y143_YF] it is inactive: 0.224.
On the same count and under the same terms, the same measure for TFLRTYTDAMQ [TSPAN7_Y124]: active: 4.32.
Turning to LGKGSYAKVRS [TSSK2_Y23_K27R], the enrichment score is inactive: 0.931.
On the same count and under the same terms, the figure for LANNEYYFQVC [TTN_Y18997_R19000Q] is inactive: 0.809.
As for RGEEPYTKKAL [TTC21B_Y160_K157E], the enrichment score was inactive: 0.615.
Same read-out and setting: the same measure for ANNEYYFQVCA [TTN_Y18998_R19000Q]: inactive: 0.986.
For AQMAMYFWEMS [TRPM4_Y577_G582S], the enrichment score is inactive: 3.01.
The same measure, in the same setting: the figure for LANNEYFFRVC [TTN_Y18997_YF] is inactive: 1.16; for IQSAKYDMAED [TTC21B_Y1213] it is inactive: 0.686; for AEVIWYKGDEE [TTN_Y13423] it is inactive: 0.757.

The target in another assay is SHP2 N-SH2 domain T42A. The description is as above. The following applies: peptide library: pTyr-Var.
Regarding DTQNSYGCATS [TSC1_Y304], the enrichment score was inactive: 0.729.
For GSQERDFELVE [TSC2_Y407_Y407D], the enrichment score was inactive: 0.396.
Still for that read-out and setting: the same measure for ANNEFYFQVCA [TTN_Y18998_R19000Q_YF]: inactive: 0.438.
Still for that read-out and setting: the figure for CHSDDYVHISI [TSC1_Y406_L411I] is inactive: 0.709; for SQSAKYDMAED [TTC21B_Y1213_I1208S] it is inactive: 0.449; for CHSDDYVHISL [TSC1_Y406] it is inactive: 0.74.
Same read-out and setting: the same measure for ISSLCYELLEE [TRPC6_Y896_R895C]: inactive: 0.8.
For LANNEYFFQVC [TTN_Y18997_R19000Q_YF], the enrichment score is inactive: 0.813.
Still for that read-out and setting: the same measure for IETGRYEILTE [TTN_Y13435]: inactive: 0.82; for FGLPRYRWLTH [TSPAN12_Y143_YF]: inactive: 0.477.
With TFLRTYTDAMQ [TSPAN7_Y124], the enrichment score was inactive: 0.915.
Same read-out and setting: the same measure for LGKGSYAKVRS [TSSK2_Y23_K27R]: inactive: 0.826; for LANNEYYFQVC [TTN_Y18997_R19000Q]: inactive: 1.22.
The same measure, in the same setting: the same measure for RGEEPYTKKAL [TTC21B_Y160_K157E]: inactive: 0.477.
Still for that read-out and setting: the figure for ANNEYYFQVCA [TTN_Y18998_R19000Q] is inactive: 0.807; for AQMAMYFWEMS [TRPM4_Y577_G582S] it is inactive: 2.31; for LANNEYFFRVC [TTN_Y18997_YF] it is inactive: 0.851.
IQSAKYDMAED [TTC21B_Y1213]: the enrichment score is inactive: 0.5.
The same measure, in the same setting: the figure for AEVIWYKGDEE [TTN_Y13423] is inactive: 0.667.

Another assay has as its target SHP2 N-SH2 domain T52S. The assay is described as above. The following applies: peptide library: pTyr-Var.
With DTQNSYGCATS [TSC1_Y304], the enrichment score is inactive: 0.545.
On the same count and under the same terms, the figure for GSQERDFELVE [TSC2_Y407_Y407D] is inactive: 0.369; for ANNEFYFQVCA [TTN_Y18998_R19000Q_YF] it is inactive: 0.579.
On the same count and under the same terms, the figure for CHSDDYVHISI [TSC1_Y406_L411I] is inactive: 0.764; for SQSAKYDMAED [TTC21B_Y1213_I1208S] it is inactive: 0.363.
On the same count and under the same terms, the same measure for CHSDDYVHISL [TSC1_Y406]: inactive: 0.764; for ISSLCYELLEE [TRPC6_Y896_R895C]: inactive: 1.02.
Consider LANNEYFFQVC [TTN_Y18997_R19000Q_YF], for which the enrichment score was inactive: 0.884.
Regarding IETGRYEILTE [TTN_Y13435], the enrichment score was inactive: 0.762.
As for FGLPRYRWLTH [TSPAN12_Y143_YF], the enrichment score is inactive: 0.36.
The same measure, in the same setting: the same measure for TFLRTYTDAMQ [TSPAN7_Y124]: active: 5.02.
The same measure, in the same setting: the figure for LGKGSYAKVRS [TSSK2_Y23_K27R] is inactive: 0.917; for LANNEYYFQVC [TTN_Y18997_R19000Q] it is inactive: 0.854.
For the molecule RGEEPYTKKAL [TTC21B_Y160_K157E], the enrichment score is inactive: 0.556.
On the same count and under the same terms, the same measure for ANNEYYFQVCA [TTN_Y18998_R19000Q]: inactive: 0.742.
AQMAMYFWEMS [TRPM4_Y577_G582S]: the enrichment score is inactive: 2.48.
Same read-out and setting: the figure for LANNEYFFRVC [TTN_Y18997_YF] is inactive: 0.741; for IQSAKYDMAED [TTC21B_Y1213] it is inactive: 0.611.
With AEVIWYKGDEE [TTN_Y13423], the enrichment score was inactive: 0.797.

The next assay deals with SHP2 N-SH2 domain wild-type. The description is as above. Particulars: peptide library: pTyr-Var.
Regarding DTQNSYGCATS [TSC1_Y304], the enrichment score is inactive: 0.379.
On to GSQERDFELVE [TSC2_Y407_Y407D], for which the enrichment score was inactive: 0.445.
Still for that read-out and setting: the figure for ANNEFYFQVCA [TTN_Y18998_R19000Q_YF] is inactive: 1.04.
As to CHSDDYVHISI [TSC1_Y406_L411I], the enrichment score is inactive: 0.94.
On the same count and under the same terms, the figure for SQSAKYDMAED [TTC21B_Y1213_I1208S] is inactive: 0.163; for CHSDDYVHISL [TSC1_Y406] it is inactive: 0.859; for ISSLCYELLEE [TRPC6_Y896_R895C] it is inactive: 1.71.
On the same count and under the same terms, the figure for LANNEYFFQVC [TTN_Y18997_R19000Q_YF] is inactive: 1.67; for IETGRYEILTE [TTN_Y13435] it is inactive: 0.87; for FGLPRYRWLTH [TSPAN12_Y143_YF] it is inactive: 0.389.
Turning to TFLRTYTDAMQ [TSPAN7_Y124], the enrichment score is inactive: 1.48.
On the same count and under the same terms, the same measure for LGKGSYAKVRS [TSSK2_Y23_K27R]: inactive: 0.984; for LANNEYYFQVC [TTN_Y18997_R19000Q]: inactive: 1.17; for RGEEPYTKKAL [TTC21B_Y160_K157E]: inactive: 0.647.
On to ANNEYYFQVCA [TTN_Y18998_R19000Q], for which the enrichment score is inactive: 1.2.
On the same count and under the same terms, the same measure for AQMAMYFWEMS [TRPM4_Y577_G582S]: inactive: 3.09.
Same read-out and setting: the figure for LANNEYFFRVC [TTN_Y18997_YF] is inactive: 0.926.
On the same count and under the same terms, the same measure for IQSAKYDMAED [TTC21B_Y1213]: inactive: 0.77.
As to AEVIWYKGDEE [TTN_Y13423], the enrichment score is inactive: 0.783.
